Measured values from PubChem BioAssay AID488969 (Vanderbilt High Throughput Screening Facility, 2010).
Over roughly 110,000 compounds, “z-score” has its median near -0.1; the highest 2% begin near 2. Some of the results follow. Calls of active or inactive are those of the source.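 The calls were made as follows: active = z-score in the third read window above 3 or below -3; inactive = the rest.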

target: Metabotropic glutamate receptor 8 (Rattus norvegicus) (UniProt P70579); test: rat mGluR8 modulators via GIRK flux, primary screen, cell-based, thallium flux, HTS (AID 488969); settings: HEK293 rat mGluR8, GIRK (G protein-gated inwardly rectifying potassium channel) thallium flux, FluoZin2; at 10 µM; stronger effect = higher value; submaximal glutamate (EC20) added with thallium
Chain of UniProt P70579 (P70579 whole entry, looked up): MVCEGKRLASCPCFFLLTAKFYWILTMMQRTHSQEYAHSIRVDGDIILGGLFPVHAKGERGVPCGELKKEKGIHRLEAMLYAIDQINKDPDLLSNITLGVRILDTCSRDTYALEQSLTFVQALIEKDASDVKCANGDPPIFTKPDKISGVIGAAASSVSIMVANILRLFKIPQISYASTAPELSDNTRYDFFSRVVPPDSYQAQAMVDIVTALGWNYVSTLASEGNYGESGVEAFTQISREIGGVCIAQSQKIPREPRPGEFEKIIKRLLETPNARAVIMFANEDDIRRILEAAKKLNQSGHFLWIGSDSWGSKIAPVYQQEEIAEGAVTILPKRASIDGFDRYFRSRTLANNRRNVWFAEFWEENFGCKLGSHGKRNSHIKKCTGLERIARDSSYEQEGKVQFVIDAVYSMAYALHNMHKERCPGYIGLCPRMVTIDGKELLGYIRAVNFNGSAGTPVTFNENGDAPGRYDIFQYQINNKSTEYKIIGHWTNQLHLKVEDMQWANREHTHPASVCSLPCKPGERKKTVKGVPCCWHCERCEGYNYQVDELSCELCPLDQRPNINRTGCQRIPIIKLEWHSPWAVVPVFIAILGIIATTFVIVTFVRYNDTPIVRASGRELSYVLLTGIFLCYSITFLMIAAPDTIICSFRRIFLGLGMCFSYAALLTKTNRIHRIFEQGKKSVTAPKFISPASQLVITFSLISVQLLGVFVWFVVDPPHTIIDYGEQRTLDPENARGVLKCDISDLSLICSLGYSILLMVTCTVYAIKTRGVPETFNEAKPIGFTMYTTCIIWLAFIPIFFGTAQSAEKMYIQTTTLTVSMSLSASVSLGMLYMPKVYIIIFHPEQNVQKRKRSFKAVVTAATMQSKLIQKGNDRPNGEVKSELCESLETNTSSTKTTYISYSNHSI

SMILES	z-score
CC(O)CNc1nc2c(c(=O)n(C)c(=O)n2C)n1Cc1cccc(Br)c1 (stereo not given)	-0.338
Cc1cccc(NC(=O)/C(C#N)=C/c2cn(CC(=O)NCc3ccco3)c3ccccc23)c1	-0.187
Cc1onc(-c2ccccc2)c1C(=O)Nc1ccc(S(=O)(=O)N2CCCCC2)cc1	-0.301
CCCN(CCC)CCNC(=O)C1CCN(Cc2nc(-c3ccc(Cl)cc3)oc2C)CC1	0.348
Cc1ccc(S(=O)(=O)NCC(=O)N/N=C/c2ccc(Cl)cc2Cl)cc1	-0.272
N#Cc1ccc(-c2csc(NC(=O)C3CC3)n2)cc1	-0.464
CCCCC(=O)Nc1cccc(-c2cn3ccsc3n2)c1	-0.713
CC1CCN(S(=O)(=O)c2cn(CC(=O)N3CCN(C)CC3)c(=O)c3ccccc23)CC1	0.0164
Cc1cccc(NC(=S)N(CCN(C)C)Cc2cc3cc(C)cc(C)c3[nH]c2=O)c1	0.0908
Cc1nnc(SCCC(=O)Nc2ccc(F)cc2)s1	0.473
Cc1csc2nc(CNS(=O)(=O)c3cccnc3)cn12	-0.311
O=C(CNC(=O)c1ccc(Cl)cc1)OCc1nc2ccccc2s1	-0.538
CCOc1ccc(NCC(=O)Nc2ccc(Cl)cc2C)cc1	-0.235
COC(=O)c1ccccc1NC(=O)c1ccc(NS(C)(=O)=O)cc1	-0.0185
O=C(Oc1ccccc1C(=O)N1CCOCC1)c1cccc(Br)c1	-1.11
COC(=O)CCS(=O)(=O)c1nc(-c2ccccc2)cc(C(F)(F)F)n1	-0.75
CN(c1ccccc1C(=O)O)S(=O)(=O)c1ccc2c3c(cccc13)C(=O)N2	0.571
COc1ccc(/C=C/C(=O)NNc2c(F)c(F)cc(F)c2F)cc1OC	0.159
Cc1ccc2oc(C(=O)Nc3nnc(C)s3)c(C)c2c1	-0.9
CC(=O)Nc1ccc(S(=O)(=O)N2CCSC2C(=O)O)cc1 (stereo not given)	0.392
O=C(COC(=O)c1cccc(S(=O)(=O)N2CCc3ccccc32)c1)Nc1ncc(Cl)cc1Cl	-0.543
Nc1nc2nc(-c3ccc(OCc4ccccc4)cc3)cc(C(F)(F)F)n2n1	-0.434

SMILES	z-score
Cc1nn(C)c(C)c1CN(C)S(=O)(=O)c1ccc2ccccc2c1	-0.0215
NS(=O)(=O)c1ccc(NC(=O)C(Sc2ccccc2)c2ccccc2)cc1 (stereo not given)	-0.39
COc1ccc(/C=N/Nc2nncc3ccccc23)cc1	-0.111
CCCCCCCCCCNC(=O)CCn1[nH]c(=O)c2ccccc2c1=O	0.387
C=CCn1c(SCC(=O)N2CCN(C(=O)c3ccco3)CC2)nc2sc(CC)cc2c1=O	-2.02
CCOc1ccc2[nH]c(=O)c(CN(CCO)C(=O)c3ccc(OC)c(OC)c3)cc2c1	0.172
C=CCn1c(-c2ccc([N+](=O)[O-])cc2)n[nH]c1=S	-0.141
CCn1c(SCc2nc3ccccc3c(=O)[nH]2)nc2ccccc2c1=O	-0.672
O=C(/C=C/c1c(Cl)cccc1Cl)N1CCN(c2ncccn2)CC1	-0.303
O=C(CSc1nc(Nc2ccccc2)nc(N2CCOCC2)n1)Nc1ccc([N+](=O)[O-])cc1	-0.18
COc1cc(/C=N/NC(=O)c2sc(N)c(C#N)c2C)ccc1O	-0.0866
CCn1c(/C=C/N(C(C)=O)c2ccccc2)[n+](CC)c2ccc(Cl)cc21	-0.116
CCCCNC(=O)c1onc(CSc2cc(C)cc(C)c2)c1C(=O)O	-0.0168
O=C(c1cccc(F)c1)N1CCN(Cc2c[nH]c3ccccc23)CC1	-0.0568
CC(C)CN(C(=O)COC(=O)CCc1c[nH]c2ccccc12)C1CCS(=O)(=O)C1 (stereo not given)	-0.187
COc1ccc(S(=O)(=O)N(C(=O)C(C)C)c2ccc3oc(=O)sc3c2)cc1	0.209
COc1ccc(Cl)c(Cn2c(NCCCN(C)C)nc3c2c(=O)n(C)c(=O)n3C)c1	0.0257
O=C(NCc1ccco1)c1cccc(NS(=O)(=O)c2ccccc2F)c1	-0.312
CS(=O)(=O)N1CCc2cc(C(=O)OCC(=O)c3ccccc3)ccc21	-0.0613
CC(C)(C)c1ccc(S(=O)(=O)NCC(=O)Nc2sc3c(c2C(N)=O)CCCC3)cc1	-0.0387
O=C(O)CSCNC(=O)CC12CC3CC(CC(C3)C1)C2	-0.152
Cc1n[nH]c(=S)c2nn(-c3ccccc3)c(C)c12	-0.174

SMILES	z-score
CCOc1ccc(NC(=O)CSc2nnc(-c3ccoc3C)n2CC2CCCO2)cc1 (stereo not given)	0.377
N#Cc1cn(Cc2cccc(Cl)c2)c2ccccc12	0.676
Cc1ccc(-c2nc(C3CCN(S(=O)(=O)c4ccc(C(C)(C)C)cc4)CC3)no2)cc1	-0.202
O=C(N/N=C/c1ccc(N2CCCCC2)o1)c1ccccc1	0.453
COc1cccc(NC(=O)NCCCN2CCN(c3ccc(F)cc3)CC2)c1	-0.617
O=C(NCCN1CCOCC1)c1cc(-c2ccc(F)cc2)on1	-0.134
COc1ccc(-c2noc(CCC(=O)NC3CCN(Cc4ccccc4)CC3)n2)cc1	0.924
Cc1ccccc1C(=O)c1c[nH]c(C(=O)NCCCn2ccnc2)c1	-0.531
CC(=O)c1c(C)[nH]c(C(=O)COC(=O)CNS(=O)(=O)c2ccccc2)c1C	-0.187
O=C(Nc1ccc2c(c1)OCCO2)c1ccncc1	0.327
O=C(Nc1ccc(-c2nc3ccccc3s2)cc1)c1cc(-n2cnnc2)ccc1Cl	-0.25
COCCn1c(SCC(=O)Nc2cc(Cl)ccc2OC)nc2c(c1=O)SC(C)C2 (stereo not given)	-1.28
C=CCOc1cccc(C2/C(=C(/O)c3ccccc3)C(=O)C(=O)N2CCN2CCOCC2)c1 (stereo not given)	-0.193
CCCn1c(=O)c2ccccc2n2c(SCc3nc4ccccc4s3)nnc12	active: -5.06
CN(C)c1ccc(NC(=O)CSc2nnc(-c3cccs3)n2Cc2ccco2)cc1	-0.433
O=C(N/N=C/c1cc2c(cc1Cl)OCO2)c1ccccn1	-0.14
CC(C)CC1NC(=O)N(CC(=O)N2CCN(S(=O)(=O)c3ccc4ccccc4c3)CC2)C1=O (stereo not given)	0.0525
Cn1c(SCC(=O)Nc2nccs2)nnc1-c1ccco1	-0.369
O=C(O)CCC(=O)Nc1ccc(N2CCCCCC2)cc1	0.291
c1ccc(Nc2nc(N3CCOCC3)c3ccccc3n2)cc1	-0.226
COc1ccc(CCNC(=S)Nc2cccc3ccccc23)cc1	-1.46
CC(C)NC(=S)NN(c1ccccc1)c1ccccc1	2.38

SMILES	z-score
COc1ccccc1OCC(=O)OC/C(O)=C(\C#N)c1nc2ccccc2[nH]1	-0.615
CC(C)OCC(O)CCc1n[nH]c(=S)n1-c1ccccc1 (stereo not given)	-0.224
Cc1nn2c(N3CCN(C(=O)c4ccco4)CC3)cc(C(C)(C)C)nc2c1-c1ccc(Cl)cc1	-0.119
S=c1[nH]nc(-c2ccc(Br)cc2)n1Cc1ccco1	2.41
O=C(CC1CCCCC1)N1CCN(c2ccccn2)CC1	-0.15
CC1CCN(C(=O)CCCNC(=O)Cn2cnc3sc4c(c3c2=O)CCCC4)CC1	0.0698
O=C(COC(=O)C1(c2ccccc2F)CCCC1)NCc1ccc2c(c1)OCO2	-0.629
C=CCSc1nc(-c2ccccc2)c2cc(Cl)ccc2n1	-0.223
CC(C)(C)n1nnnc1C(c1cccc(C#N)c1)N1CCN2CCCC2C1 (stereo not given)	0.0936
O=C1CCCc2sccc2N1	-0.164
COc1ccc(S(=O)(=O)N(C)CC(=O)NC2CCCCC2)cc1Cl	0.239
COc1ccccc1C(=O)n1nc(-c2ccc(Cl)cc2)nc1N	-0.0501
O=C1CC(c2ccccc2)Sc2ccccc2N1 (stereo not given)	-0.216
COCCN(C(=O)Cc1cccs1)C(C(=O)NCc1ccc(OC)cc1)c1ccc(OC)cc1 (stereo not given)	-0.202
c1ccc(Cn2c(Sc3nnnn3-c3ccccc3)nnc2-c2ccccc2)cc1	0.223
O=C1CC(Nc2ccc(N3CCOCC3)cc2)C(=O)N1c1ccccc1 (stereo not given)	-0.264
CC(C)=C1SC(N2CCN(c3cccc(C)c3)CC2)=NC1=O	-0.16
CC(=O)Nc1ccc(NC(=S)NC(=O)c2ccc([N+](=O)[O-])c(C)c2)cc1	-0.0487
Cc1nc2cc(Cl)ccc2n1CCO	0.0368
CCOc1cc(-c2cc(-c3ccc(C)o3)nc(N)c2C#N)ccc1O	-0.365
O=S(Cc1ccc(Br)cc1)Cc1nnc(SCc2ccc(Cl)cc2)n1-c1ccccc1 (stereo not given)	0.0364
CCCN1C(=O)c2ccccc2NC1c1ccc(OC)cc1O (stereo not given)	-1.57

SMILES	z-score
C1=C(CCNCC2CCCCC2)CCCC1	1.98
COc1cccc2c(=O)n(CC(=O)N3CCCCCC3)ccc12	-0.0875
CC(=O)O/N=C/c1c(N2CCOCC2)n(C)c2ccccc12	0.378
CCc1ccccc1OCC(=O)Nc1ccc(S(N)(=O)=O)cc1	-0.00663
CCCC(=O)Nc1nnc(SCC(=O)NCc2ccco2)s1	-0.312
CCC(Oc1ccccc1)C(=O)Nc1ccccc1OC (stereo not given)	-0.424
CCOc1ccccc1NC1=CC(=O)CC(c2ccccc2)C1 (stereo not given)	-0.395
O=C(c1ccccc1-c1nc(-c2ccccc2)no1)N1CCOCC1	0.0291
Cc1cccc(N2CCN(C(=O)CCc3nc4ccccc4[nH]3)CC2C)c1 (stereo not given)	0.487
CCOC(=O)CSc1nnc(-c2cccnc2)o1	-0.323
CSc1ccc(N2CCN(CCCNC(=O)Nc3ccccc3F)CC2)cc1	0.699
CS(=O)(=O)N1CCCC(C(=O)NCCc2ccccc2)C1 (stereo not given)	-0.114
O=S(=O)(c1ccc2c(c1)OCCO2)N1CCN(c2nc3ccccc3s2)CC1	-0.556
O=C(CSc1nnc(-c2csc3c2CCCC3)o1)Nc1ccccc1	0.0102
COc1ccc(-c2nnc(CSc3nc4ccccc4c(=O)n3C)o2)cc1OC	-1.62
Cc1cc(=O)n2c3ccccc3n(CC(O)CN3CCCC3)c2c1C#N (stereo not given)	-0.164
O=C(CNS(=O)(=O)c1ccc(C(=O)N2CCOCC2)cc1)N1CCOCC1	0.12
Cc1ccc(/C=C(/C#N)C(=O)NC(=O)Oc2ccccc2)cc1	-0.159
S=C(NC1CCCCC1)N1CCN(Cc2ccccc2)CC1	-0.255
CC(C)(C)C1(c2ccccc2)NC(=O)N(CC(=O)N2CCOCC2)C1=O (stereo not given)	-0.13
COc1ccc(S(=O)(=O)N2Cc3ccccc3CC2C(=O)O)cc1 (stereo not given)	-0.0326
CC(C)CCNC(=O)Cn1c(=O)oc2cc(S(=O)(=O)N3CC(C)CC(C)C3)ccc21 (stereo not given)	-0.287
